This note sets out measurements from publication PMC5681660, “Reduced hepatitis B and D viral entry using clinically applied drugs as novel inhibitors of the bile acid transporter NTCP” (Scientific Reports, 2017).

SMILES strings stand for the structures. Structures can show the parent of a compound that is named as a salt. Where two headings read alike, the source gives them in different places.

The target in assay [1] is T1, human NTCP (Homo sapiens, UniProt Q14973).
T1 sequence (Q14973 1-349): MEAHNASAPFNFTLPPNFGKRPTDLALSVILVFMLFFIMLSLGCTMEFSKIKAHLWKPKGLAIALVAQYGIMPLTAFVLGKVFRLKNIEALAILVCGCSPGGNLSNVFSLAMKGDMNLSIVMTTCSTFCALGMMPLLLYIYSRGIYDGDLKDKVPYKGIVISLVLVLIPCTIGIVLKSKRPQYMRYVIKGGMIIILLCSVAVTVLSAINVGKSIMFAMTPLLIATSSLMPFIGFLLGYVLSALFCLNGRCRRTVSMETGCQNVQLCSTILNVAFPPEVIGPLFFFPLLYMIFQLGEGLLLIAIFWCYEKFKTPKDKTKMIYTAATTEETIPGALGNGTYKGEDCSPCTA
Put plainly: Screening fluorescent competitive Myrcludex B-FITC binding assay (96-well, 10 µM drug). Particulars: for remaining activity at 10 µM: 0.5 h; for %NTCP binding: Myrcludex B-FITC binding, 10 µM drug.

Assay [2] addresses T1, human NTCP. Put plainly: Screening taurocholate uptake assay (96-well, [14C]taurocholate, 10 µM drug). Particulars: for remaining activity at 10 µM: 10 min, read-out: %NTCP activity.
[3] abbreviates: read-out: %NTCP binding, screen, 10 µM drug, Myrcludex B-FITC binding.

Turning to `CCN(CC)C(=O)c1ccc(O)c(OC)c1` [Ethamivan], the remaining activity at 10 µM in assay [1] (read-out: %NTCP binding) came to 106%; in assay [2], 57.3%.

Turning to `O=S(=O)(O)c1cc(O)ccc1O` [Ethamsylate], the remaining activity at 10 µM in assay [1] (read-out: %NTCP binding) turned out to be 87.6%; in assay [2], 90.9%.

In the case of `CCOc1ccc(Cc2nccc3cc(OCC)c(OCC)cc23)cc1OCC` [Ethaverine hydrochloride], the remaining activity at 10 µM in assay [1] (read-out: %NTCP binding) is 118%; in assay [2], 103%.

For the molecule `C#C[C@]1(O)CC[C@H]2[C@@H]3CCC4=CC(=O)CC[C@]4(C)[C@H]3CC[C@@]21C` [Ethisterone], the remaining activity at 10 µM in assay [1] (read-out: %NTCP binding, Prestwick library screen, Myrcludex B-FITC binding, 10 µM drug) amounted to 96.9%; in assay [2] it was 41.3%.

For the molecule `CCN(CC)C(C)CN1c2ccccc2Sc2ccccc21` (stereo not shown) [Ethopropazine hydrochloride], the remaining activity at 10 µM in assay [1] (read-out: %NTCP binding) was determined as 106%; in assay [2], 116%.

For the molecule `CCC1(C)CC(=O)NC1=O` (stereo not shown) [Ethosuximide], the remaining activity at 10 µM stood at 74.8% in assay [1] (read-out: %NTCP binding) and 103% in assay [2].

As to `CCN1C(=O)NC(c2ccccc2)C1=O` (stereo not shown) [Ethotoin], the results for the remaining activity at 10 µM in assay [1] (read-out: %NTCP binding) and in assay [2] were 87.8% and 122%, respectively.

Consider `CCOc1ccc2c(c1)C(C)=CC(C)(C)N2` [Ethoxyquin], for which the remaining activity at 10 µM in assay [1] (read-out: %NTCP binding) was determined as 90.7%; in assay [2], 66.2%.

On to `CC(O)(P(=O)([O-])O)P(=O)([O-])O.[Na+].[Na+]` [Etidronic acid, disodium salt], for which the “%NTCP binding” value in assay [1] (Prestwick library screen) is 86.2088%. For the same molecule, in assay [2] (Prestwick library screen, [14C]taurocholate uptake, 10 µM drug), the “%NTCP activity” value is reported as 94.8533%.

Turning to `CCc1cccc(CC)c1NC(=O)CN(CC(=O)O)CC(=O)O` [Etifenin], the remaining activity at 10 µM in assay [1] (read-out: %NTCP binding) worked out at 77%; in assay [2], 47.1%.

In the case of `CCNCC(O)c1cccc(O)c1` (stereo not shown) [Etilefrine hydrochloride], the remaining activity at 10 µM amounted to 89.9% in assay [1] (read-out: %NTCP binding) and 69.7% in assay [2].

Turning to `Cn1c(=O)c2c(ncn2CCO)n(C)c1=O` [Etofylline], the remaining activity at 10 µM in assay [1] (read-out: %NTCP binding) was found to be 77.9%; in assay [2] it was 118%.

Turning to `COc1cc([C@@H]2c3cc4c(cc3[C@@H](O[C@@H]3O[C@@H]5CO[C@@H](C)O[C@H]5[C@H](O)[C@H]3O)[C@H]3COC(=O)[C@H]23)OCO4)cc(OC)c1O` [Etoposide], the values for the remaining activity at 10 µM in assay [1] (read-out: %NTCP binding) and in assay [2] were 47.7% and 70%, respectively.

Consider `Cc1ccc(-c2ncc(Cl)cc2-c2ccc(S(C)(=O)=O)cc2)cn1` [Etoricoxib], for which the remaining activity at 10 µM in assay [1] (read-out: %NTCP binding) is 72.2%; in assay [2] it was 119%.

On to `CCOC(=O)/C=C(C)/C=C/C=C(C)/C=C/c1c(C)cc(OC)c(C)c1C` [Etretinate], for which the values for the remaining activity at 10 µM in assay [1] (read-out: %NTCP binding) and in assay [2] were 82.6% and 126%, respectively.

On to `CC1CC(OC(=O)C(O)c2ccccc2)CC(C)(C)N1C` (stereo not shown) [Eucatropine hydrochloride], for which the figures for the remaining activity at 10 µM in assay [1] (read-out: %NTCP binding) and in assay [2] were 91.2% and 73%, respectively.

For the molecule `CC(=O)OCC(CCn1cnc2cnc(N)nc21)COC(C)=O` [Famciclovir], the values for the remaining activity at 10 µM in assay [1] (read-out: %NTCP binding) and in assay [2] were 119% and 93.4%, respectively.

On to `CC(C)c1c(CN(C)C(C)Cc2ccccc2)n(C)n(-c2ccccc2)c1=O` (stereo not shown) [Famprofazone], for which the values for the remaining activity at 10 µM in assay [1] (setting [3]) and in assay [2] were 75.7% and 88.9%, respectively.

Consider `NC(=O)OCC(COC(N)=O)c1ccccc1` [Felbamate], for which the remaining activity at 10 µM came to 61.2% in assay [1] (read-out: %NTCP binding) and 88.1% in assay [2].

On to `O=C(O)Cc1ccc(-c2ccccc2)cc1` [Felbinac], for which the remaining activity at 10 µM in assay [1] (read-out: %NTCP binding) came to 117%; in assay [2] it was 57.4%.

Consider `COC(=O)Nc1nc2ccc(Sc3ccccc3)cc2[nH]1` [Fenbendazole], for which the values for the remaining activity at 10 µM in assay [1] (read-out: %NTCP binding) and in assay [2] were 58.7% and 129%, respectively.

In the case of `O=C(O)CCC(=O)c1ccc(-c2ccccc2)cc1` [Fenbufen], the figures for the remaining activity at 10 µM in assay [1] (read-out: %NTCP binding) and in assay [2] were 66.5% and 122%, respectively.

As to `CC(NCCC(c1ccccc1)c1ccccc1)c1ccccc1` (stereo not shown) [Fendiline hydrochloride], the remaining activity at 10 µM in assay [1] (read-out: %NTCP binding) is 72.1%; in assay [2], 113%.

As to `CCCCC(O)c1ccccc1` (stereo not shown) [Fenipentol], in assay [1] (screen), the “%NTCP binding” value stood at 79.6525%. In assay [2], the “%NTCP activity” value turned out to be 94.6657%.

As to `CC(C(=O)[O-])c1cccc(Oc2ccccc2)c1.CC(C(=O)[O-])c1cccc(Oc2ccccc2)c1.O.O.[Ca+2]` (stereo not shown) [Fenoprofen calcium salt dihydrate], the “%NTCP binding” value in assay [1] (screen) is recorded as 88.2286%. For the same molecule, the “%NTCP activity” value in assay [2] (screen, 10 µM drug, [14C]taurocholate uptake) stood at 53.0016%.

On to `CC(Cc1ccc(O)cc1)NCC(O)c1cc(O)cc(O)c1` (stereo not shown) [Fenoterol hydrobromide], for which the remaining activity at 10 µM in assay [1] (setting [3]) is 68.4%; in assay [2] it was 59.7%.

As for `O=C1NCC2(CCN(CCc3ccccc3)CC2)O1` [Fenspiride hydrochloride], the remaining activity at 10 µM is 72.7% in assay [1] (read-out: %NTCP binding) and 132% in assay [2].

Regarding `O=C(O)Cc1sc(-c2ccccc2)nc1-c1ccc(Cl)cc1` [Fentiazac], the remaining activity at 10 µM in assay [1] (read-out: %NTCP binding) turned out to be 70%; in assay [2] it was 43%.

Turning to `CC(C)(C)NC(=O)[C@H]1CC[C@H]2[C@@H]3CC[C@H]4NC(=O)C=C[C@]4(C)[C@H]3CC[C@]12C` [Finasteride], the remaining activity at 10 µM in assay [1] (read-out: %NTCP binding) was 82.8%; in assay [2], 118%.

For `Cc1c(-c2ccccc2)oc2c(C(=O)OCCN3CCCCC3)cccc2c1=O` [Flavoxate hydrochloride], the results for the remaining activity at 10 µM in assay [1] (read-out: %NTCP binding) and in assay [2] were 89.8% and 56.9%, respectively.

Regarding `CN1CCN(c2c(F)cc3c(=O)c(C(=O)O)cn(CCF)c3c2F)CC1` [Fleroxacin], the figures for the remaining activity at 10 µM in assay [1] (read-out: %NTCP binding) and in assay [2] were 93.6% and 77.7%, respectively.

Turning to `O=c1[nH]c(=O)n([C@H]2C[C@H](O)[C@@H](CO)O2)cc1F` [Floxuridine], the remaining activity at 10 µM in assay [1] (read-out: %NTCP binding) is 103%; in assay [2], 84.1%.

For `COC(=O)Nc1nc2cc(C(=O)c3ccc(F)cc3)ccc2[nH]1` [Flubendazol], the results for the remaining activity at 10 µM in assay [1] (read-out: %NTCP binding) and in assay [2] were 109% and 71.4%, respectively.

Consider `Cc1onc(-c2c(F)cccc2Cl)c1C(=O)N[C@@H]1C(=O)N2[C@@H]1SC(C)(C)[C@@H]2C(=O)O` [Flucloxacillin sodium], for which the remaining activity at 10 µM in assay [1] (read-out: %NTCP binding) worked out at 98.8%; in assay [2] it was 112%.

Turning to `OC(Cn1cncn1)(Cn1cncn1)c1ccc(F)cc1F` [Fluconazole], the remaining activity at 10 µM in assay [1] (read-out: %NTCP binding) was determined as 101%; in assay [2], 132%.

Turning to `Nc1[nH]c(=O)ncc1F` [Flucytosine], the remaining activity at 10 µM in assay [1] (read-out: %NTCP binding) came to 97.2%; in assay [2], 47.6%.

For `Nc1nc(F)nc2c1ncn2[C@@H]1O[C@H](CO)[C@@H](O)[C@@H]1O` [Fludarabine], the remaining activity at 10 µM came to 107% in assay [1] (read-out: %NTCP binding) and 118% in assay [2].

As for `CC(=O)OCC(=O)[C@@]1(O)CC[C@H]2[C@@H]3CCC4=CC(=O)CC[C@]4(C)[C@@]3(F)[C@@H](O)C[C@@]21C` [Fludrocortisone acetate], the remaining activity at 10 µM in assay [1] (read-out: %NTCP binding) was 72.5%; in assay [2], 36.3%.

`CC1CCc2cc(F)cc3c(=O)c(C(=O)O)cn1c23` (stereo not shown) [Flumequine]: the remaining activity at 10 µM is 59% in assay [1] (read-out: %NTCP binding) and 101% in assay [2].

As for `Fc1ccc(C(c2ccc(F)cc2)N2CCN(C/C=C/c3ccccc3)CC2)cc1` [Flunarizine dihydrochloride], the values for the remaining activity at 10 µM in assay [1] (read-out: %NTCP binding) and in assay [2] were 74.8% and 86.7%, respectively.

Take `CC1(C)O[C@@H]2C[C@H]3[C@@H]4C[C@H](F)C5=CC(=O)C=C[C@]5(C)[C@H]4[C@@H](O)C[C@]3(C)[C@]2(C(=O)CO)O1` [Flunisolide]: the remaining activity at 10 µM came to 68.8% in assay [1] (read-out: %NTCP binding) and 102% in assay [2].

Regarding `CC1(C)O[C@@H]2C[C@H]3[C@@H]4C[C@H](F)C5=CC(=O)C=C[C@]5(C)[C@@]4(F)[C@@H](O)C[C@]3(C)[C@]2(C(=O)CO)O1` [Fluocinolone acetonide], the remaining activity at 10 µM is 81.2% in assay [1] (read-out: %NTCP binding) and 48.4% in assay [2].

Consider `CC(=O)OCC(=O)[C@@]12OC(C)(C)O[C@@H]1C[C@H]1[C@@H]3C[C@H](F)C4=CC(=O)C=C[C@]4(C)[C@@]3(F)[C@@H](O)C[C@@]12C` [Fluocinonide], for which the remaining activity at 10 µM in assay [1] (read-out: %NTCP binding) was 78.9%; in assay [2], 92.5%.

Consider `CC(=O)[C@@]1(O)CC[C@H]2[C@@H]3C[C@H](C)C4=CC(=O)C=C[C@]4(C)[C@@]3(F)[C@@H](O)C[C@@]21C` [Fluorometholone], for which the values for the remaining activity at 10 µM in assay [1] (read-out: %NTCP binding) and in assay [2] were 77.8% and 99.6%, respectively.

Consider `CC1(C)O[C@@H]2C[C@H]3[C@@H]4C[C@H](F)C5=CC(=O)CC[C@]5(C)[C@H]4[C@@H](O)C[C@]3(C)[C@]2(C(=O)CO)O1` [Flurandrenolide], for which the remaining activity at 10 µM in assay [1] (read-out: %NTCP binding) is 72.3%; in assay [2], 108%.

For the molecule `CC(C(=O)O)c1ccc(-c2ccccc2)c(F)c1` (stereo not shown) [Flurbiprofen], the remaining activity at 10 µM in assay [1] (read-out: %NTCP binding) turned out to be 129%; in assay [2], 37.2%.

On to `CC(C)C(=O)Nc1ccc([N+](=O)[O-])c(C(F)(F)F)c1` [Flutamide], for which the results for the remaining activity at 10 µM in assay [1] (read-out: %NTCP binding) and in assay [2] were 63.5% and 91.1%, respectively.
